# From PubChem BioAssay (NCATS)
# Inconclusive means that the source gave no clear call. Such entries were picked first, then a sample of the others. Potencies of inconclusive entries are left out as doubtful fits. The source made the active and inactive calls. Calls follow the shape of the dose curve; as a rule, active = well fitted inhibition curve with a large enough effect; inconclusive = small, poorly fitted or top-dose-only effect, or another doubt; inactive = no such curve, though single readings can be large or run the other way.
# Target: DNA polymerase eta (Homo sapiens) (UniProt Q9Y253)
# Chain of UniProt Q9Y253 (Q9Y253 whole entry, looked up): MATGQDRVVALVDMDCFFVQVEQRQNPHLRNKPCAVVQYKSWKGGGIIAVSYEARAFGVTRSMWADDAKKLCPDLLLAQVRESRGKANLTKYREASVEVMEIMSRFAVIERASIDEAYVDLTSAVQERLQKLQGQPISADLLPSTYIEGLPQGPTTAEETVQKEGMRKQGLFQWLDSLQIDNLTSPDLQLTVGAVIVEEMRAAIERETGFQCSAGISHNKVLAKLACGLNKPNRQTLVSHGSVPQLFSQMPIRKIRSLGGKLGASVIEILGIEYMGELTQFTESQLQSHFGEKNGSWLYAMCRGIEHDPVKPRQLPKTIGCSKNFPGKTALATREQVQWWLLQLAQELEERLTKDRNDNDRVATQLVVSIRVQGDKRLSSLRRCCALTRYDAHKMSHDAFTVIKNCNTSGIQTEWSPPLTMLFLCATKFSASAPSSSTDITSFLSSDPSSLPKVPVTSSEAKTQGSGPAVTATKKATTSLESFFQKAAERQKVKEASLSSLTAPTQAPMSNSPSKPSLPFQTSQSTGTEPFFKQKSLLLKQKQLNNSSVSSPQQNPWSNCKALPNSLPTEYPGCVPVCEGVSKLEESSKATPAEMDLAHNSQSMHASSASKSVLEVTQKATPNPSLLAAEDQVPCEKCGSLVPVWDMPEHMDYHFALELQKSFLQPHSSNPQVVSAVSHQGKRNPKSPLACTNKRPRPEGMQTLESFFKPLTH
# Assay: qHTS for Inhibitors of Polymerase Eta: Confirmatory Assay for Cherry-picked Compounds (AID 720502)
# Conditions: Pol eta primer extension, TAMRA/BHQ fluorescence, 10 min
# Outline: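 Compounds are preincubated 15 min at room temperature with 10 nM human Pol eta, with buffer-only wells serving as negative control. Adding 50 nM final substrate starts the reaction, and TAMRA fluorescence is read over 10 min.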
# Potency is read from the fitted curve at half-maximal effect; tags tell the direction and shape of the fitted curve.
row,SMILES,Potency
1,CC[N+](C)(CC)CCCCOc1ccc2c(c1)C(=O)c1cc(OCCCC[N+](C)(CC)CC)ccc1-2,"inconclusive [inhibitor, partial curve]"
2,Cc1cc(/C=C2\C(=O)NC(=O)N(Cc3ccco3)C2=O)c(C)n1-c1ccc(O)cc1,"inconclusive [inhibitor, single point]"
3,CCn1ncc(-c2ccnc3cc(C(=O)O)nn23)c1C,"inconclusive [inhibitor, single point]"
4,Cc1ccc(-n2c(C)cc(/C=C3/C(=O)NC(=O)N(Cc4ccco4)C3=O)c2C)cc1,"inconclusive [inhibitor, single point]"
5,O=C(c1cccc2ccccc12)C1CCCN(C2CCC2)C1 (stereo not drawn),"inconclusive [inhibitor, single point]"
6,Nc1nonc1C(=O)N/N=C/c1ccc([N+](=O)[O-])o1,"inconclusive [inhibitor, single point]"
7,C=CCN1C(=O)/C(=C/c2cccs2)C(=O)NC1=S,"inconclusive [inhibitor, single point]"
8,NN=C1C(Cl)=C(Cl)C(Cl)=C1Cl,"inconclusive [inhibitor, partial curve, poor fit]"
9,COc1ccc(N2C(=O)/C(=C/c3ccc(C)o3)C(=O)NC2=S)c(OC)c1,active: 16.9 µM
10,C/C(=C/CCC(C)[C@H]1CC[C@@]2(C)C3=C(CC[C@]12C)[C@@]1(C)CCC(=O)C(C)(C)[C@@H]1CC3)C(=O)O (stereo partly drawn),"inconclusive [inhibitor, single point]"
11,Cc1ccc(S(=O)(=O)Cc2ccc(C(=O)N3CCC4(CC3)OCCO4)o2)cc1,"inconclusive [inhibitor, single point]"
12,COC(=O)c1nc(-c2ccc3c(n2)C(=O)C(N)=C(OC)C3=O)c(N)c(-c2ccc(OC)c(OC)c2O)c1C,"inconclusive [inhibitor, single point]"
13,O=C1NC(=O)N(CCC2=CCCCC2)C(=O)/C1=C/c1cccs1,"inconclusive [inhibitor, single point]"
